The sequences are guide strands of siRNAs; only the seed at positions 2 to 7 varies.
Tests used:
GL261 = experiment: cell viability relative to siNT1 (ATP content); H4 human neuroglioma and GL261 mouse glioma; higher = less toxic; conditions: siRNA concentration 25 nM; 96 h; mouse
H4 = experiment: as above; conditions: siRNA concentration 10 nM; 96 h; human
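Note: cells reverse transfected with siRNA duplexes via lipid reagent, ATP read by luminescence, triplicate wells, values scaled to mean viability with non-targeting control siNT1.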

Sequence: UGAUCAAACAUGUAAACCA
- cell viability (GL261): 55.5%
- cell viability (H4): 71.2%

Sequence: UGAUCACACAUGUAAACCA
- cell viability (GL261): 17.3%
- cell viability (H4): 53.6%

Sequence: UGAUCAGACAUGUAAACCA
- cell viability (GL261): 38.2%
- cell viability (H4): 56.8%

Sequence: UGAUCAUACAUGUAAACCA
- cell viability (GL261): 41.5%
- cell viability (H4): 64.3%

Sequence: UGAUCCAACAUGUAAACCA
- cell viability (GL261): 27.3%
- cell viability (H4): 71.6%

Sequence: UGAUCCCACAUGUAAACCA
- cell viability (GL261): 29.7%
- cell viability (H4): 65.2%

Sequence: UGAUCCGACAUGUAAACCA
- cell viability (GL261): 20.1%
- cell viability (H4): 87.3%

Sequence: UGAUCCUACAUGUAAACCA
- cell viability (GL261): 10.1%
- cell viability (H4): 42.6%

Sequence: UGAUCGAACAUGUAAACCA
- cell viability (GL261): 51.8%
- cell viability (H4): 65.2%

Sequence: UGAUCGCACAUGUAAACCA
- cell viability (GL261): 17.6%
- cell viability (H4): 62.5%

Sequence: UGAUCGGACAUGUAAACCA
- cell viability (GL261): 17.3%
- cell viability (H4): 63.7%

Sequence: UGAUCGUACAUGUAAACCA
- cell viability (GL261): 22.5%
- cell viability (H4): 74.7%

Sequence: UGAUCUAACAUGUAAACCA
- cell viability (GL261): 52.6%
- cell viability (H4): 77.4%

Sequence: UGAUCUCACAUGUAAACCA
- cell viability (GL261): 32.1%
- cell viability (H4): 66%

Sequence: UGAUCUGACAUGUAAACCA
- cell viability (GL261): 49.1%
- cell viability (H4): 74%

Sequence: UGAUCUUACAUGUAAACCA
- cell viability (GL261): 67%
- cell viability (H4): 61.8%

Sequence: UGAUGAAACAUGUAAACCA
- cell viability (GL261): 25.1%
- cell viability (H4): 104%

Sequence: UGAUGACACAUGUAAACCA
- cell viability (GL261): 13.2%
- cell viability (H4): 46%

Sequence: UGAUGAGACAUGUAAACCA
- cell viability (GL261): 17.2%
- cell viability (H4): 75.4%

Sequence: UGAUGAUACAUGUAAACCA
- cell viability (GL261): 12.6%
- cell viability (H4): 54.9%

Sequence: UGAUGCAACAUGUAAACCA
- cell viability (GL261): 18.7%
- cell viability (H4): 38.7%

Sequence: UGAUGCCACAUGUAAACCA
- cell viability (GL261): 17.2%
- cell viability (H4): 6.29%

Sequence: UGAUGCGACAUGUAAACCA
- cell viability (GL261): 11.3%
- cell viability (H4): 78.7%

Sequence: UGAUGCUACAUGUAAACCA
- cell viability (GL261): 6.52%
- cell viability (H4): 13.3%

Sequence: UGAUGGAACAUGUAAACCA
- cell viability (GL261): 22.9%
- cell viability (H4): 64.9%

Sequence: UGAUGGCACAUGUAAACCA
- cell viability (GL261): 14%
- cell viability (H4): 13.3%

Sequence: UGAUGGGACAUGUAAACCA
- cell viability (GL261): 14.4%
- cell viability (H4): 42.3%

Sequence: UGAUGGUACAUGUAAACCA
- cell viability (GL261): 18.3%
- cell viability (H4): 39.9%

Sequence: UGAUGUAACAUGUAAACCA
- cell viability (GL261): 61.7%
- cell viability (H4): 96.6%

Sequence: UGAUGUCACAUGUAAACCA
- cell viability (GL261): 40.3%
- cell viability (H4): 53.9%

Sequence: UGAUGUGACAUGUAAACCA
- cell viability (GL261): 46%
- cell viability (H4): 87.7%

Sequence: UGAUGUUACAUGUAAACCA
- cell viability (GL261): 35.1%
- cell viability (H4): 74.6%

Sequence: UGAUUAAACAUGUAAACCA
- cell viability (GL261): 44.4%
- cell viability (H4): 91%

Sequence: UGAUUACACAUGUAAACCA
- cell viability (GL261): 34.3%
- cell viability (H4): 63.4%

Sequence: UGAUUAGACAUGUAAACCA
- cell viability (GL261): 59.9%
- cell viability (H4): 80.1%

Sequence: UGAUUAUACAUGUAAACCA
- cell viability (GL261): 27.5%
- cell viability (H4): 68.1%

Sequence: UGAUUCAACAUGUAAACCA
- cell viability (GL261): 45%
- cell viability (H4): 53.6%

Sequence: UGAUUCCACAUGUAAACCA
- cell viability (GL261): 22.3%
- cell viability (H4): 44.9%

Sequence: UGAUUCGACAUGUAAACCA
- cell viability (GL261): 23.6%
- cell viability (H4): 55.1%

Sequence: UGAUUCUACAUGUAAACCA
- cell viability (GL261): 20.6%
- cell viability (H4): 51.8%

Sequence: UGAUUGAACAUGUAAACCA
- cell viability (GL261): 59.8%
- cell viability (H4): 97.5%

Sequence: UGAUUGCACAUGUAAACCA
- cell viability (GL261): 32.5%
- cell viability (H4): 39.7%

Sequence: UGAUUGGACAUGUAAACCA
- cell viability (GL261): 49.3%
- cell viability (H4): 63.7%

Sequence: UGAUUGUACAUGUAAACCA
- cell viability (GL261): 70.8%
- cell viability (H4): 75.4%

Sequence: UGAUUUAACAUGUAAACCA
- cell viability (GL261): 46.8%
- cell viability (H4): 63.4%

Sequence: UGAUUUCACAUGUAAACCA
- cell viability (GL261): 28.6%
- cell viability (H4): 48.7%

Sequence: UGAUUUGACAUGUAAACCA
- cell viability (GL261): 31.6%
- cell viability (H4): 69.4%

Sequence: UGAUUUUACAUGUAAACCA
- cell viability (GL261): 35%
- cell viability (H4): 49.3%

Sequence: UGCAAAAACAUGUAAACCA
- cell viability (GL261): 56.1%
- cell viability (H4): 118%

Sequence: UGCAAACACAUGUAAACCA
- cell viability (GL261): 44.9%
- cell viability (H4): 89.2%

Sequence: UGCAAAGACAUGUAAACCA
- cell viability (GL261): 58.3%
- cell viability (H4): 88.2%

Sequence: UGCAAAUACAUGUAAACCA
- cell viability (GL261): 55.5%
- cell viability (H4): 75.5%

Sequence: UGCAACAACAUGUAAACCA
- cell viability (GL261): 51.2%
- cell viability (H4): 85.8%

Sequence: UGCAACCACAUGUAAACCA
- cell viability (GL261): 28.6%
- cell viability (H4): 58.9%

Sequence: UGCAACGACAUGUAAACCA
- cell viability (GL261): 61.5%
- cell viability (H4): 95.1%

Sequence: UGCAACUACAUGUAAACCA
- cell viability (GL261): 37.9%
- cell viability (H4): 59.9%

Sequence: UGCAAGAACAUGUAAACCA
- cell viability (GL261): 62.6%
- cell viability (H4): 84.8%

Sequence: UGCAAGCACAUGUAAACCA
- cell viability (GL261): 19.7%
- cell viability (H4): 81.4%

Sequence: UGCAAGGACAUGUAAACCA
- cell viability (GL261): 37.3%
- cell viability (H4): 59.8%

Sequence: UGCAAGUACAUGUAAACCA
- cell viability (GL261): 45.7%
- cell viability (H4): 85.3%

Sequence: UGCAAUAACAUGUAAACCA
- cell viability (GL261): 110%
- cell viability (H4): 121%

Sequence: UGCAAUCACAUGUAAACCA
- cell viability (GL261): 52.2%
- cell viability (H4): 56%

Sequence: UGCAAUGACAUGUAAACCA
- cell viability (GL261): 78.2%
- cell viability (H4): 85.3%

Sequence: UGCAAUUACAUGUAAACCA
- cell viability (GL261): 46.3%
- cell viability (H4): 57.7%

Sequence: UGCACAAACAUGUAAACCA
- cell viability (GL261): 55%
- cell viability (H4): 100%

Sequence: UGCACACACAUGUAAACCA
- cell viability (GL261): 27.7%
- cell viability (H4): 54.8%

Sequence: UGCACAGACAUGUAAACCA
- cell viability (GL261): 32.1%
- cell viability (H4): 64.6%

Sequence: UGCACAUACAUGUAAACCA
- cell viability (GL261): 44.3%
- cell viability (H4): 88.5%

Sequence: UGCACCAACAUGUAAACCA
- cell viability (GL261): 27.4%
- cell viability (H4): 65%

Sequence: UGCACCCACAUGUAAACCA
- cell viability (GL261): 23.5%
- cell viability (H4): 31%

Sequence: UGCACCGACAUGUAAACCA
- cell viability (GL261): 24.7%
- cell viability (H4): 61.6%

Sequence: UGCACCUACAUGUAAACCA
- cell viability (GL261): 39.6%
- cell viability (H4): 67%

Sequence: UGCACGAACAUGUAAACCA
- cell viability (GL261): 46.9%
- cell viability (H4): 84.5%

Sequence: UGCACGCACAUGUAAACCA
- cell viability (GL261): 30.7%
- cell viability (H4): 49.9%

Sequence: UGCACGGACAUGUAAACCA
- cell viability (GL261): 48.1%
- cell viability (H4): 59.5%

Sequence: UGCACGUACAUGUAAACCA
- cell viability (GL261): 35.4%
- cell viability (H4): 86.8%

Sequence: UGCACUAACAUGUAAACCA
- cell viability (GL261): 56.3%
- cell viability (H4): 109%

Sequence: UGCACUCACAUGUAAACCA
- cell viability (GL261): 25.9%
- cell viability (H4): 55.8%

Sequence: UGCACUGACAUGUAAACCA
- cell viability (GL261): 47.1%
- cell viability (H4): 65.1%

Sequence: UGCACUUACAUGUAAACCA
- cell viability (GL261): 36.7%
- cell viability (H4): 58.1%

Sequence: UGCAGAAACAUGUAAACCA
- cell viability (GL261): 36.5%
- cell viability (H4): 59.4%

Sequence: UGCAGACACAUGUAAACCA
- cell viability (GL261): 16.8%
- cell viability (H4): 55.1%

Sequence: UGCAGAGACAUGUAAACCA
- cell viability (GL261): 32.9%
- cell viability (H4): 70.1%

Sequence: UGCAGAUACAUGUAAACCA
- cell viability (GL261): 31.3%
- cell viability (H4): 27.7%

Sequence: UGCAGCAACAUGUAAACCA
- cell viability (GL261): 31.7%
- cell viability (H4): 63.5%

Sequence: UGCAGCCACAUGUAAACCA
- cell viability (GL261): 12.8%
- cell viability (H4): 25.1%

Sequence: UGCAGCGACAUGUAAACCA
- cell viability (GL261): 34.3%
- cell viability (H4): 59.7%

Sequence: UGCAGCUACAUGUAAACCA
- cell viability (GL261): 15.6%
- cell viability (H4): 42.9%

Sequence: UGCAGGAACAUGUAAACCA
- cell viability (GL261): 28.7%
- cell viability (H4): 39.9%

Sequence: UGCAGGCACAUGUAAACCA
- cell viability (GL261): 31.6%
- cell viability (H4): 1.73%

— the supplement of paper PMC8948288
